In test [1] the target is CTLA4-muFc (fusion protein of human CTLA4 and mouse Fc) (human). The test can be described thus: BLI (Octet K2); anti-human Fc on AHC sensor, CTLA4-muFc diluted in a gradient as analyte; 1:1 model. In general terms: BLI is a label-free optical method that tracks binding on a fibre tip over time.
Test [2] has as its target T1, human CTLA4 protein (human, UniProt P16410 36-161).
T1 construct: also called hCTLA4; monomeric human CTLA4
The test can be described thus: assay and target not described in the filing; human CTLA4 presumed.

One may read the Kd as the equilibrium constant for the complex coming apart. A higher Kd goes with a looser complex. Usually EC50 stands for the midpoint of the concentration-response curve. A higher EC50 goes with a need for much substance.

T1 sequence (P16410 other isoform, or with tags, fused parts or gaps limits assumed): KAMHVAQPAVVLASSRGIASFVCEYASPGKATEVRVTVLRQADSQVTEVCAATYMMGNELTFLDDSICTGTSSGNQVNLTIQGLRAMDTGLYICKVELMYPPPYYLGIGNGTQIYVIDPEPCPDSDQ

B1: 138-Fc (Fc fusion)
chain: QVQLQESGGGSVQAGGSLTLSCAASGYANSNTCMGWFRQAPGKERERVAAISGVGTGTYYADSVKGRFTISRDNGKNTLFLQMNSLKPEDTAMYYCAAAPEGRAWCSRDPSGYNYWGQGTQVTVSSGS[human IgG1 Fc with changes left out here]
notes: also called KN138-Fc
Take B1: in test [1], the Kd was found to be 25.3 nM.

B2: hu138V2-Ld-Fc (Fc fusion)
chain: QVQLVESGGGLVQPGGSLRLSCAASGYANSNTCMGWFRQAPGKERERVAAISGVGTGTYYADSVKGRFTISRDNSKNTLYLQMNSLRAEDTAVYYCAAAPEGRAWCSRDPSGYNYWGQGTLVTVSS[human IgG1 Fc left out here]
notes: not shown: 'Ld' in the name is not explained
Regarding B2, the concentration for a half-maximal effect (EC50) in test [2] worked out at 0.0346 µg/mL.

B3: hu138V3-Ld-Fc (Fc fusion)
chain: QVQLVESGGGSVQAGGSLRLSCAASGYANSNTCMGWFRQAPGKGLERVAAISGVGTGTYYADSVKGRFTISRDNSKNTLYLQMNSLRAEDTAVYYCAAAPEGRAWCSRDPSGYNYWGQGTLVTVSS[human IgG1 Fc left out here]
notes: as for B2
Regarding B3, in test [2], the EC50 stood at 0.0349 µg/mL.

B4: hu138V4-Ld-Fc (Fc fusion)
chain: QVQLVESGGGLVQPGGSLRLSCAASGYANSNTCMGWFRQAPGKGLERVAAISGVGTGTYYADSVKGRFTISRDNSKNTLYLQMNSLRAEDTAVYYCAAAPEGRAWCSRDPSGYNYWGQGTLVTVSS[human IgG1 Fc left out here]
notes: as for B2
With B4, the EC50 in test [2] was determined as 0.0336 µg/mL.

Values taken from patent publication US20220251207A1 (JIANGSU ALPHAMAB BIOPHARMACEUTICALS, published 2022).
